In all, about 110,000 compounds went through this assay and about 230 (0.21%) showed an effect of 50% or more. The list shows a part of the results.
These compounds were tested against DPAP1 (Plasmodium falciparum, UniProt Q8IIJ9) (assay: primary screen, percent inhibition; read by cleavage of a fluorogenic dipeptide substrate; higher = more effect of the substance).
Design: species or system P. falciparum D10 trophozoite lysates; single well
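Also: 30 min substrate incubation versus DMSO and 10 µM JCP410 controls.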

DPAP1, sequence (Q8IIJ9 whole entry, looked up): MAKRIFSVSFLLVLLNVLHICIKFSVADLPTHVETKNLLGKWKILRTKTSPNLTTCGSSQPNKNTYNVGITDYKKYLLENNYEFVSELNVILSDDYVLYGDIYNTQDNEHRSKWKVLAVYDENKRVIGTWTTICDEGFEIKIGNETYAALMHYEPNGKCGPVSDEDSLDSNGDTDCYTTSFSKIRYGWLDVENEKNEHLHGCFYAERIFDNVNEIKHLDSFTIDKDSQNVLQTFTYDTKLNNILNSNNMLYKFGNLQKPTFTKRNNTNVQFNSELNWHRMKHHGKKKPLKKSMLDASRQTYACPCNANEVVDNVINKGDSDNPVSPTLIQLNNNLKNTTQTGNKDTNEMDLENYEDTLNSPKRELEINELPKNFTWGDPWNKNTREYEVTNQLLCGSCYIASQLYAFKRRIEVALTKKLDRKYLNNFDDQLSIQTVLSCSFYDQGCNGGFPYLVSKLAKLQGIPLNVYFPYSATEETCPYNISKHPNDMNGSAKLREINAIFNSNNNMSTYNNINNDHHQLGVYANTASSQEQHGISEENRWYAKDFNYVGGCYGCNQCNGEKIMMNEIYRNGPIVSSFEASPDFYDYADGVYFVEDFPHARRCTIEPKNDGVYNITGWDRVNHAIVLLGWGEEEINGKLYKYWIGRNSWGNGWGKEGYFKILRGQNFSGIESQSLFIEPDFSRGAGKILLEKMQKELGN

Row | SMILES | % Inhibition @ 10 uM
1 | O=[N+]([O-])c1ccc(Cl)c(CN2CCCCCCC2)c1 | 7.03%
2 | O=C(COc1ccc(S(=O)(=O)N2CCOCC2)cc1)N1c2ccccc2Sc2ccccc21 | 2.48%
3 | CC(C)CN(CC(C)C)C(=O)CN1C(=O)c2ccccc2C1=O | -2.89%
4 | CC(=O)Nc1ccc(NC(=O)c2ccc(COc3ccccc3Br)o2)cc1 | 0.931%
5 | O=C(CSc1nc2ccccc2s1)Nc1c(-c2ccccc2)nc2ccccn12 | 2.7%
6 | CN(C(=O)c1ccc([N+](=O)[O-])o1)c1ccccc1 | -1.22%
7 | O=C(NCc1ccccc1Br)C1CCCN(c2nnc(N3CCCC3=O)s2)C1 (stereo not drawn) | -4.68%
8 | CO/C(O)=C1\C(C)=NC2=C(C(=O)CC(C)(C)C2)C1c1ccc(C)o1 (stereo not drawn) | 5.7%
9 | COc1ccccc1NC(=O)c1ccc(-c2ccccc2)cc1 | -6.39%
10 | CN(CCOC(=O)c1ccco1)C(C)(C)C | 3.43%
11 | COc1ccc(C2C=C(c3ccc(Br)s3)Nc3nnnn32)cc1OC (stereo not drawn) | -1.62%
12 | COc1ccc(OC)c(C2C3=C(O)CC(C)(C)CC3=Nc3nc(-c4cccc(C)c4)nn32)c1 (stereo not drawn) | 0.275%
13 | COC(=O)c1sc2c(Cl)c(OC)ccc2c1Cl | -0.687%
14 | Cc1ccc(C(=O)N2CCc3c([nH]c4ccccc34)C2)cc1 | -15.9%
15 | CCOC(=O)c1c(C)oc2ncnc(NC3CCCCC3C)c12 (stereo not drawn) | 9.28%
16 | OC1(c2ccccc2)CN2CCCCCC2=[N+]1c1ccc(Br)cc1 (stereo not drawn) | -5.6%
17 | Cc1cc(/C=C2\C(=N)N3N=C(N4CCOCC4)SC3=NC2=O)c(C)n1-c1cccc2ccccc12 | 6.38%
18 | COc1ccc(-c2nc(CS(=O)CC(=O)NC(C)CCc3ccccc3)c(C)o2)cc1OC (stereo not drawn) | -6.64%
19 | CN1C(=O)CC(C(=O)O)S/C1=N/c1ccc(OC(F)(F)Cl)cc1 (stereo not drawn) | -3.95%
20 | COC(=O)C1=C(C)N(Cc2cccnc2)C(=O)/C1=C\c1sccc1C | 0.131%
21 | COC(=O)c1cc2c(=O)n3cc(C)ccc3nc2n(Cc2ccco2)c1=N | 0.279%
22 | Cc1nn(C)c(C)c1NC(=O)c1ccc(-c2ccccc2)cc1 | -3.14%
23 | Nc1cc(C(=O)Nc2ccccc2C(=O)O)ccc1Cl | 0.0265%
24 | O=C1Cc2ccccc2C(c2ccccc2Br)N1 (stereo not drawn) | -0.744%
25 | CCOC(=O)N1CCC(N2Cc3cccc(C(=O)NCc4ccc5c(c4)OCO5)c3C2=O)CC1 | -0.499%
26 | Cc1c(NC(=O)C23CC4CC(CC(C4)C2)C3)c(=O)n(-c2ccccc2)n1C | 0.815%
27 | Cc1ccccc1[C@@H]1C(C#N)=C(N)S[C@H]1C(=O)c1ccccc1 | -2.07%

Reference: PMC6919601, “Identification of Plasmodium dipeptidyl aminopeptidase allosteric inhibitors by high throughput screening” (PLoS ONE, 2019)
